Screen size: about 350,000 compounds; about 31,000 (8.9%) were called active. This list was built around the results that the source calls inconclusive (neither active nor inactive); the mix of calls is not that of the screen. Calls follow the shape of the dose curve; as a rule, active = well fitted inhibition curve with a large enough effect; inconclusive = small, poorly fitted or top-dose-only effect; inactive = no such curve, though single readings can be large or run the other way. Potencies beside an inconclusive call are fits to weak or partial responses and may not hold up. Some structures have more than one record in an assay (separate samples or runs), and their calls can disagree.
Molecular target: Histone-lysine N-methyltransferase EHMT2 (Homo sapiens) (UniProt Q96KQ7)
Experiment: qHTS Assay for Inhibitors of Histone Lysine Methyltransferase G9a; also: nearly all actives have a fitted effect of over 75% in size
Settings: G9a H3K9 monomethylation, AlphaScreen, 2 h; activity, negative = inhibition: at 59 µM (top of the series) unless noted
Method in brief: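 Enzyme 20 nM + cpd, 15 min RT; add b-H3K9 pep 500 nM / SAM 20 uM; 2 h RT; anti-H3K9me1 Ab 0.5 ug/mL + SA donor / anti-rabbit acceptor beads 20 ug/mL each, 10 min; AlphaScreen read.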
% is scaled to controls: 0 for no effect and ±100 for the full control effect; potency is read from the fitted curve at half-maximal effect; tags tell the direction and shape of the fitted curve.

UniProt Q96KQ7, sequence (Q96KQ7 whole entry, looked up): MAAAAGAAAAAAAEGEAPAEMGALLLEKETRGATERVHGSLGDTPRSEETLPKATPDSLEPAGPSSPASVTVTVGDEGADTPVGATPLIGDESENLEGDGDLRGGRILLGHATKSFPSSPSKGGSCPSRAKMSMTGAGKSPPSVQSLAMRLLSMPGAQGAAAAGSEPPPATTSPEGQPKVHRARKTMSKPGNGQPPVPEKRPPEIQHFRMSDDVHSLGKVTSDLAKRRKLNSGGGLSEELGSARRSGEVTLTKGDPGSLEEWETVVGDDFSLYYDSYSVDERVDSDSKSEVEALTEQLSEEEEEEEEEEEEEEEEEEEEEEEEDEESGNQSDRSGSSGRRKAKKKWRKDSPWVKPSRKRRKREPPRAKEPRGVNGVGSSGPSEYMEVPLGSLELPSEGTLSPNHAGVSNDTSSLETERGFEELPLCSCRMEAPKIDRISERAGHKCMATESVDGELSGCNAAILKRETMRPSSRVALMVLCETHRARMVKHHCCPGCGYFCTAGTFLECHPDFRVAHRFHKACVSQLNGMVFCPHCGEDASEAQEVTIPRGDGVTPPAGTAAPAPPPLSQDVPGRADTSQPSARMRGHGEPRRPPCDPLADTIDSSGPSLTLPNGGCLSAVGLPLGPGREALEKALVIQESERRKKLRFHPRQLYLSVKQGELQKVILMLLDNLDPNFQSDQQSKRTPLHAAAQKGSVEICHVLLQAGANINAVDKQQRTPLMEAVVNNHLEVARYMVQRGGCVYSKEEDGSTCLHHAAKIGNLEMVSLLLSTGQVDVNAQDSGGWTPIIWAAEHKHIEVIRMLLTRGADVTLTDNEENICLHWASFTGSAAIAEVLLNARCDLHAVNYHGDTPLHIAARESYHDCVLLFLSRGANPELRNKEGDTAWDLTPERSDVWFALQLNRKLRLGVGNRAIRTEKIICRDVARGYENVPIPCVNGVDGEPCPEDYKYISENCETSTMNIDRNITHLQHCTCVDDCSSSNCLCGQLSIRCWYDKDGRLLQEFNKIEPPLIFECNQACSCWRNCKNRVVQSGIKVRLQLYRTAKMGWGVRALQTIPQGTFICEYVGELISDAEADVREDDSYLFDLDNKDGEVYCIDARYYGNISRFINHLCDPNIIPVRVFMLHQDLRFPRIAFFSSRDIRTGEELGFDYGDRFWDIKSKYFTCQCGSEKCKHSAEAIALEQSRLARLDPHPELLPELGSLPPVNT

SMILES	Potency	activity, negative = inhibition
CCCOc1ccc(C(=O)NNC(=S)NC(=O)c2ccccc2)cc1	inconclusive: 50.1 µM [inhibitor, partial curve, poor fit]	
CN(C)S(=O)(=O)c1ccc2c(c1)N(CC(=O)NCc1ccc(F)cc1)C(=O)CS2		inactive: 8.59%
COc1ccccc1P(=O)(Cc1ccccc1[N+](=O)[O-])c1ccccc1 (stereo unspecified)		inactive: -10.1% [at 102 µM]
CC(C)=CCc1c2c(c3occ(-c4ccc(O)cc4)c(=O)c3c1O)C=CC(C)(C)O2	active: 20 µM	inactive: -57.6% [at 2.33 µM]
CCn1cnc2cc(NC(=O)c3cccs3)ccc21		inactive: 0.607% [at 102 µM]
COc1cc(/C=N/Nc2nc3ccccc3s2)ccc1OC(=O)c1ccccc1F		inactive: 8.55%
O=C(O)c1ccc2c(c1)C(=O)N(c1ccccc1-c1ccccc1)C2=O		inactive: -38.7%
CC(=O)N(C)c1ccc(NC(=S)Nc2ccc(C(C)C)cc2)cc1	inconclusive: 79.4 µM [inhibitor, partial curve, poor fit]	
COc1cc(/C=N/n2c(-c3ccccc3)n[nH]c2=S)ccc1O	active: 2.24 µM	
COc1ccc(C(=O)c2sc(Nc3ccccc3)c(C(=O)Nc3ccc(OC)c(OC)c3)c2N)cc1	inconclusive: 3.16 µM [inhibitor, partial curve]	
CCOc1ccc(CCNC(=O)COC(=O)c2nccnc2N)cc1OCC	inconclusive: 25.1 µM [inhibitor, partial curve, poor fit]	
Cn1c(CCNC(=O)c2ccco2)nc2cc(NS(=O)(=O)c3ccc(Cl)cc3)ccc21	inconclusive: 79.4 µM [inhibitor, single point]	
CCOC(=O)C1=C(C)OC(N)=C(C#N)C1c1c(C)nn(-c2ccccc2)c1Cl (stereo unspecified)	inconclusive: 39.8 µM [inhibitor, full curve, poor fit]	
C[N+]1(CC(=O)OCCCc2ccccc2)CCCC1	active: 10 µM	
CCCCC(CCC(=O)O)(C(=O)OCC)c1csc(Nc2ccccc2)n1 (stereo unspecified)		inactive: -5.28% [at 102 µM]
O=C(OCC(=O)N1N=C(c2ccc(Cl)cc2)CC1c1ccco1)c1ccco1 (stereo unspecified)	inconclusive: 50.1 µM [inhibitor, partial curve, poor fit]	
O=C1CCc2cc(S(=O)(=O)Nc3ccc(C(F)(F)F)cc3)cc3c2N1CC3		inactive: -22.3% [at 0.501 µM]
COc1cc(C(=S)N2CCCCC2)ccc1OCC(=O)Nc1ccc(F)cc1	inconclusive: 56.2 µM [inhibitor, partial curve, poor fit]	
O=C(O)c1ccc(Nc2nc3ccccc3n3cnnc23)cc1		inactive: 3.86%
Cc1cc(SCC(=O)c2ccc(O)c(O)c2)nc2ccccc12	active: 10 µM	
Cc1nonc1NC(=O)CSc1nc2ccccc2cc1C#N	inconclusive: 50.1 µM [inhibitor, partial curve]	
COc1ccccc1C(=O)NC(=O)COC(=O)c1cccc(C)c1O	inconclusive: 79.4 µM [inhibitor, partial curve, poor fit]	
CCC(=O)Nc1cccc(NC(=O)CSc2nnc(-c3ccc(NS(C)(=O)=O)cc3)n2CC)c1		inactive: 28.4% [at 12.7 µM]
COc1ccc(N2CCN(C(=O)CC34CC5CC(CC(C5)C3)C4)CC2)c([N+](=O)[O-])c1	inconclusive: 31.6 µM [inhibitor, single point]	

SMILES	Potency	activity, negative = inhibition
COc1cc(C2C(C#N)=C(N)N(N(C)C)C3=C2C(=O)CC(C)(C)C3)ccc1O (stereo unspecified)	inconclusive: 89.1 µM [inhibitor, partial curve, poor fit]	
CCSc1nnc2c(n1)OC1(CCCC1)Nc1ccccc1-2	active: 35.5 µM	
CCOC(=O)CN1C(=O)N[C@H](c2ccc(Br)cc2)C(C(C)=O)=C1C	active: 44.7 µM	
O=[N+]([O-])c1cc2c(c(CSc3nnc(Nc4ccccc4)s3)c1)OCOC2	active: 3.55 µM	
COc1cccc(NC(=O)c2cc([N+](=O)[O-])ccc2N2CCN(C)CC2)c1	inconclusive: 6.31 µM [inhibitor, single point]	
CC1CCCC(NC(=O)CN2C(=O)NC(c3ccccc3)(c3ccccc3)C2=O)C1C (stereo unspecified)		inactive: -41.2% [at 102 µM]
CC1CC(C)(C)NC(=S)N1CCC(=O)NCCc1ccc(Cl)cc1 (stereo unspecified)	active: 50.1 µM	
CCCCCNC(=O)C(C#N)c1nc2ccccc2nc1N1CCCC1 (stereo unspecified)	inconclusive: 2.24 µM [inhibitor, partial curve, poor fit]	
CCC1CC2(C)NC(=O)c3c(sc4c3CC(C)(C)OC4)N2C1=O (stereo unspecified)	active: 31.6 µM	
Cc1sc(NC(=O)c2ccco2)c(C(c2cccnc2)N2CCC(C)CC2)c1C (stereo unspecified)	inconclusive: 3.16 µM [inhibitor, single point]	
CCNC(=O)c1sc(=S)n(CC)c1N	active: 12.6 µM	
O=C(Nc1ccccc1C(=O)Nc1ccncc1)c1ccc([N+](=O)[O-])cc1	inconclusive: 39.8 µM [inhibitor, single point]	
COc1ccc2[nH]c(C)c(C(=O)CN3CCN(C/C=C/c4ccccc4)CC3)c2c1	inconclusive: 14.1 µM [inhibitor, partial curve, poor fit]	
COc1ccc(OC)c2sc(N3CCN(C(=O)c4ccc5c(c4)CCCC5)CC3)nc12	inconclusive: 25.1 µM [inhibitor, single point]	
CC(C)Cc1nn2c(N)c(/C=C3\C=Nc4ccccc43)c(=O)nc2s1	inconclusive: 89.1 µM [inhibitor, partial curve, poor fit]	
COCCCNC(=O)CN1CCN(Cc2ccccc2Cl)C1=O	inconclusive: 79.4 µM [inhibitor, single point]	
COc1ccc2c(c1)C(=NN)c1cc(OC)ccc1-2	inconclusive: 70.8 µM [inhibitor, partial curve, poor fit]	
Cn1c(/C(C#N)=C(\O)c2ccc([N+](=O)[O-])cc2)nc2ccccc21		inactive: -35.2% [at 102 µM]
Cc1ccc(N2CC(C(=O)Nc3c4c(nn3C(C)(C)C)CS(=O)(=O)C4)CC2=O)cc1 (stereo unspecified)	inconclusive: 12.6 µM [inhibitor, partial curve, poor fit]	
Cn1c(=O)c2cc(C(=O)NCCCN3CCN(c4cccc(Cl)c4)CC3)sc2c2ccccc21		inactive: 6.95%
C=CCOC(=O)C1=C(C)NC(SCC(=O)N(CC)CC)=C(C#N)C1c1ccco1 (stereo unspecified)	inconclusive: 31.6 µM [inhibitor, single point]	
CN1CC[n+]2c(CN3C(=O)c4ccccc4C3=O)csc21	inconclusive: 0.316 µM [inhibitor, partial curve, poor fit]	
Cc1nn(-c2ccccc2)c(-n2cccc2)c1C(=O)NCCc1ccc(Cl)cc1		inactive: 55.5%
COc1cc2[nH]c(=S)nc(NCC3CCCO3)c2cc1OC (stereo unspecified)	inconclusive: 39.8 µM [inhibitor, single point]	

SMILES	Potency	activity, negative = inhibition
O=C(NCCS(=O)(=O)NCc1ccc(Cl)cc1)c1ccccc1		inactive: -7.35% [at 102 µM]
N#Cc1ncc(C(F)(F)F)cc1Sc1ccccc1N		inactive: 30.1% [at 12.7 µM]
Nc1ncnc2oc(-c3ccco3)c(-c3ccco3)c12	active: 5.62 µM	
O=C(c1ccccc1)c1c(O)nc(-c2ccccc2)n(-c2ccccc2)c1=O	inconclusive: 1.58 µM [inhibitor, full curve]	
COc1cccc(N(C(=O)CNC(=O)c2ccco2)C(C(=O)NC2CCCC2)c2ccncc2)c1 (stereo unspecified)	inconclusive: 3.98 µM [inhibitor, single point]	
CCOCCCNC(=O)C(c1ccc(Cl)cc1)N(Cc1cccs1)C(=O)CNC(C)=O (stereo unspecified)		inactive: 27.3% [at 102 µM]
COC1=C/C(=C/c2c(N)n3nc(CC(=O)N4CCCCC4)sc3nc2=O)C=CC1=O	inconclusive: 89.1 µM [inhibitor, single point]	
O=C(NC(Nc1nc2ccc([N+](=O)[O-])cc2s1)(C(F)(F)F)C(F)(F)F)c1ccccc1Cl	active: 79.4 µM	
O=C(NCc1ccccc1)N(Cc1cc2cc3c(cc2[nH]c1=O)OCO3)CC1CCCO1 (stereo unspecified)	inconclusive: 39.8 µM [inhibitor, single point]	
CC(C)(C)C1CCC2(CC1)CC(=O)c1ccccc1O2 (stereo unspecified)		inactive: 108%
Cc1ccc(/C=C2\SC(=S)N(C(Cc3ccccc3)C(=O)O)C2=O)cc1 (stereo unspecified)	inconclusive: 17.8 µM [inhibitor, single point]	
O=S(=O)(N/N=C/c1ccccc1F)c1ccccc1	inconclusive: 89.1 µM [inhibitor, single point]	
CCOc1cc(N2CCOCC2)c(OCC)cc1NC(=O)c1ccc(C)s1	active: 44.7 µM	
CC(=O)NS(=O)(=O)c1ccc(NS(=O)(=O)c2ccc3ccccc3c2)cc1	inconclusive: 1 µM [inhibitor, partial curve, poor fit]	
CC(C)n1nc(C(=O)NNC(=O)c2ccc(OC(F)F)cc2)c2ccccc2c1=O	active: 3.16 µM	
O=C(NCc1ccc(F)cc1)c1ccc(Br)o1	inconclusive: 0.891 µM [inhibitor, partial curve, poor fit]	
O=C(Nc1ccc(Cl)cc1)Nc1cccc(C(=O)O)c1		inactive: 44.6% [at 0.501 µM]
Cc1ccc(N2CC(C(=O)OCc3nnc(-c4ccccc4)o3)CC2=O)cc1 (stereo unspecified)		inactive: -37.6% [at 102 µM]
O=C(CCc1nnc2ccc(NCc3ccco3)nn12)N1CCCCC1	inconclusive: 89.1 µM [inhibitor, single point]	
CCN1CCN(CC(O)COCC2COc3ccccc3O2)CC1 (stereo unspecified)	inconclusive: 56.2 µM [inhibitor, partial curve, poor fit]	
CC1CCCC(NC(=O)COC(=O)COc2ccc(Cl)cc2)C1C (stereo unspecified)		inactive: 12.3% [at 102 µM]
CCC(CC)NC(=O)COC(=O)c1ccc(NS(=O)(=O)c2ccc3c(c2)OCCO3)cc1	inconclusive: 100 µM [inhibitor, partial curve, poor fit]	
